# The list shows a part of the results.
# B1: Apa (Mycobacterium tuberculosis), Rv1860 (protein)
# chain: MHQVDPNLTRRKGRLAALAIAAMASASLVTVAVPATANADPEPAPPVPTTAASPPSTAAAPPAPATPVAPPPPAAANTPNAQPGDPNAAPPPADPNAPPPPVIAPNAPQPVRIDNPVGGFSFALPAGWVESDAAHFDYGSALLSKTTGDPPFPGQPPPVANDTRIVLGRLDQKLYASAEATDSKAAARLGSDMGEFYMPYPGTRINQETVSLDANGVSGSASYYEVKFSDPSKPNGQIWTGVIGSPAANAPDAGPPQRWFVVWLGTANNPVDKGAAKALAESIRPLVAPPPAPAPAPAEPAPAPAPAGEVAPTPTTPTPQRTLPA
# How the values were obtained:
# Experiment in all cases: glycan array binding signal (z-score within array); higher = stronger binding
# Details in all cases: glycan notation: IUPAC condensed, linker removed
# [1] = biological target: Gal(b1-4)GalNAc(b1-3)[Fuc(a1-2)]Gal(b1-4)GlcNAc
# In short: (§1)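 Columns mapping to the same glycan were averaged after glycan names were converted to IUPAC-condensed notation. The data come from 3228 arrays in the Consortium for Functional Glycomics database, limited to those with an available protein sequence. Binding is reported as a within-array Z-score averaged across arrays of one protein sequence and across linkers.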
# Gal(b1-4)Glc = biological target: Gal(b1-4)Glc
# In short: as §1
# Gal(b1-4)Glc6S = biological target: Gal(b1-4)Glc6S
# In short: as §1
# Gal(b1-4)GlcNAc = biological target: Gal(b1-4)GlcNAc
# In short: as §1
# [2] = biological target: Gal(b1-4)GlcNAc(a1-6)Gal(b1-4)GlcNAc
# In short: as §1
# Gal(b1-4)GlcNAc(b1-2)Man = biological target: Gal(b1-4)GlcNAc(b1-2)Man
# In short: as §1
# [3] = biological target: Gal(b1-4)GlcNAc(b1-2)Man(a1-3)Man(b1-4)GlcNAc(b1-4)GlcNAc
# In short: as §1
# [4] = biological target: Gal(b1-4)GlcNAc(b1-2)Man(a1-3)[Gal(b1-4)GlcNAc(b1-2)Man(a1-6)]Man(b1-4)GlcNAc(b1-4)GlcNAc
# In short: as §1
# [5] = biological target: Gal(b1-4)GlcNAc(b1-2)Man(a1-3)[Gal(b1-4)GlcNAc(b1-2)Man(a1-6)]Man(b1-4)GlcNAc(b1-4)[Fuc(a1-6)]GlcNAc
# In short: as §1
# [6] = biological target: Gal(b1-4)GlcNAc(b1-2)Man(a1-3)[Gal(b1-4)GlcNAc(b1-2)Man(a1-6)][Gal(b1-4)GlcNAc(b1-4)]Man(b1-4)GlcNAc(b1-4)[Fuc(a1-6)]GlcNAc
# In short: as §1
# [7] = biological target: Gal(b1-4)GlcNAc(b1-2)Man(a1-3)[Gal(b1-4)GlcNAc(b1-2)Man(a1-6)][GlcNAc(b1-4)]Man(b1-4)GlcNAc(b1-4)[Fuc(a1-6)]GlcNAc
# In short: as §1
# [8] = biological target: Gal(b1-4)GlcNAc(b1-2)Man(a1-3)[GlcNAc(b1-2)Man(a1-6)]Man(b1-4)GlcNAc(b1-4)GlcNAc
# In short: as §1
# [9] = biological target: Gal(b1-4)GlcNAc(b1-2)Man(a1-3)[GlcNAc(b1-4)][Gal(b1-4)GlcNAc(b1-2)Man(a1-6)]Man(b1-4)GlcNAc(b1-4)GlcNAc
# In short: as §1
# [10] = biological target: Gal(b1-4)GlcNAc(b1-2)Man(a1-3)[Man(a1-6)]Man(b1-4)GlcNAc(b1-4)GlcNAc
# In short: as §1
# [11] = biological target: Gal(b1-4)GlcNAc(b1-2)Man(a1-6)Man(b1-4)GlcNAc(b1-4)GlcNAc
# In short: as §1
# [12] = biological target: Gal(b1-4)GlcNAc(b1-2)Man(a1-6)[GlcNAc(b1-2)Man(a1-3)]Man(b1-4)GlcNAc(b1-4)GlcNAc
# In short: as §1
# [13] = biological target: Gal(b1-4)GlcNAc(b1-2)Man(a1-6)[Man(a1-3)]Man(b1-4)GlcNAc(b1-4)GlcNAc
# In short: as §1
# [14] = biological target: Gal(b1-4)GlcNAc(b1-2)[Gal(b1-4)GlcNAc(b1-4)]Man(a1-3)[Gal(b1-4)GlcNAc(b1-2)Man(a1-6)]Man(b1-4)GlcNAc(b1-4)GlcNAc
# In short: as §1
# [15] = biological target: Gal(b1-4)GlcNAc(b1-2)[Gal(b1-4)GlcNAc(b1-4)]Man(a1-3)[Gal(b1-4)GlcNAc(b1-2)[Gal(b1-4)GlcNAc(b1-6)]Man(a1-6)]Man(b1-4)GlcNAc(b1-4)GlcNAc
# In short: as §1
# [16] = biological target: Gal(b1-4)GlcNAc(b1-2)[Gal(b1-4)GlcNAc(b1-4)]Man(a1-3)[GlcNAc(b1-4)][Gal(b1-4)GlcNAc(b1-2)Man(a1-6)]Man(b1-4)GlcNAc(b1-4)GlcNAc
# In short: as §1
# [17] = biological target: Gal(b1-4)GlcNAc(b1-2)[Gal(b1-4)GlcNAc(b1-4)]Man(a1-3)[GlcNAc(b1-4)][Gal(b1-4)GlcNAc(b1-2)[Gal(b1-4)GlcNAc(b1-6)]Man(a1-6)]Man(b1-4)GlcNAc(b1-4)GlcNAc
# In short: as §1
# [18] = biological target: Gal(b1-4)GlcNAc(b1-2)[Gal(b1-4)GlcNAc(b1-6)]Man(a1-6)[Gal(b1-4)GlcNAc(b1-2)Man(a1-3)]Man(b1-4)GlcNAc(b1-4)GlcNAc
# In short: as §1
# [19] = biological target: Gal(b1-4)GlcNAc(b1-2)[Gal(b1-4)GlcNAc(b1-6)]Man(a1-6)[Gal(b1-4)GlcNAc(b1-2)Man(a1-3)]Man(b1-4)GlcNAc(b1-4)[Fuc(a1-6)]GlcNAc
# In short: as §1
# [20] = biological target: Gal(b1-4)GlcNAc(b1-2)[Gal(b1-4)GlcNAc(b1-6)]Man(a1-6)[GlcNAc(b1-4)][Gal(b1-4)GlcNAc(b1-2)Man(a1-3)]Man(b1-4)GlcNAc(b1-4)GlcNAc
# In short: as §1
# [21] = biological target: Gal(b1-4)GlcNAc(b1-2)[Gal(b1-4)GlcNAc(b1-6)]Man(a1-6)[GlcNAc(b1-4)][Gal(b1-4)GlcNAc(b1-2)[Gal(b1-4)GlcNAc(b1-4)]Man(a1-3)]Man(b1-4)GlcNAc(b1-4)[Fuc(a1-6)]GlcNAc
# In short: as §1
# [22] = biological target: Gal(b1-4)GlcNAc(b1-3)Gal(b1-3)GalNAc
# In short: as §1
# [23] = biological target: Gal(b1-4)GlcNAc(b1-3)Gal(b1-3)GlcNAc
# In short: as §1
# [24] = biological target: Gal(b1-4)GlcNAc(b1-3)Gal(b1-4)Glc
# In short: as §1
# [25] = biological target: Gal(b1-4)GlcNAc(b1-3)Gal(b1-4)GlcNAc
# In short: as §1
# [26] = biological target: Gal(b1-4)GlcNAc(b1-3)Gal(b1-4)GlcNAc(b1-2)Man(a1-3)[Gal(b1-4)GlcNAc(b1-3)Gal(b1-4)GlcNAc(b1-2)Man(a1-6)]Man(b1-4)GlcNAc(b1-4)GlcNAc
# In short: as §1
# [27] = biological target: Gal(b1-4)GlcNAc(b1-3)Gal(b1-4)GlcNAc(b1-2)Man(a1-3)[Gal(b1-4)GlcNAc(b1-3)Gal(b1-4)GlcNAc(b1-2)Man(a1-6)]Man(b1-4)GlcNAc(b1-4)[Fuc(a1-6)]GlcNAc
# In short: as §1
# [28] = biological target: Gal(b1-4)GlcNAc(b1-3)Gal(b1-4)GlcNAc(b1-2)[Gal(b1-4)GlcNAc(b1-3)Gal(b1-4)GlcNAc(b1-6)]Man(a1-6)[Gal(b1-4)GlcNAc(b1-3)Gal(b1-4)GlcNAc(b1-2)Man(a1-3)]Man(b1-4)GlcNAc(b1-4)GlcNAc
# In short: as §1
# [29] = biological target: Gal(b1-4)GlcNAc(b1-3)Gal(b1-4)GlcNAc(b1-2)[Gal(b1-4)GlcNAc(b1-3)Gal(b1-4)GlcNAc(b1-6)]Man(a1-6)[Gal(b1-4)GlcNAc(b1-3)Gal(b1-4)GlcNAc(b1-2)Man(a1-3)]Man(b1-4)GlcNAc(b1-4)[Fuc(a1-6)]GlcNAc
# In short: as §1
# [30] = biological target: Gal(b1-4)GlcNAc(b1-3)Gal(b1-4)GlcNAc(b1-3)Gal(b1-4)GlcNAc
# In short: as §1
# [31] = biological target: Gal(b1-4)GlcNAc(b1-3)Gal(b1-4)GlcNAc(b1-3)Gal(b1-4)GlcNAc(b1-2)Man(a1-3)[Gal(b1-4)GlcNAc(b1-3)Gal(b1-4)GlcNAc(b1-3)Gal(b1-4)GlcNAc(b1-2)Man(a1-6)]Man(b1-4)GlcNAc(b1-4)GlcNAc
# In short: as §1
# [32] = biological target: Gal(b1-4)GlcNAc(b1-3)Gal(b1-4)GlcNAc(b1-3)Gal(b1-4)GlcNAc(b1-2)Man(a1-3)[Gal(b1-4)GlcNAc(b1-3)Gal(b1-4)GlcNAc(b1-3)Gal(b1-4)GlcNAc(b1-2)Man(a1-6)]Man(b1-4)GlcNAc(b1-4)[Fuc(a1-6)]GlcNAc
# In short: as §1
# [33] = biological target: Gal(b1-4)GlcNAc(b1-3)Gal(b1-4)GlcNAc(b1-3)Gal(b1-4)GlcNAc(b1-2)[Gal(b1-4)GlcNAc(b1-3)Gal(b1-4)GlcNAc(b1-3)Gal(b1-4)GlcNAc(b1-6)]Man(a1-6)[Gal(b1-4)GlcNAc(b1-3)Gal(b1-4)GlcNAc(b1-3)Gal(b1-4)GlcNAc(b1-2)Man(a1-3)]Man(b1-4)GlcNAc(b1-4)[Fuc(a1-6)]GlcNAc
# In short: as §1
binder,measurement,setting,value
B1,glycan array binding signal (z-score),[1],5.04
same,glycan array binding signal (z-score),Gal(b1-4)Glc,0.077
same,glycan array binding signal (z-score),Gal(b1-4)Glc6S,-0.221
same,glycan array binding signal (z-score),Gal(b1-4)GlcNAc,0.425
same,glycan array binding signal (z-score),[2],0.281
same,glycan array binding signal (z-score),Gal(b1-4)GlcNAc(b1-2)Man,0.451
same,glycan array binding signal (z-score),[3],-0.298
same,glycan array binding signal (z-score),[4],-0.496
same,glycan array binding signal (z-score),[5],-0.333
same,glycan array binding signal (z-score),[6],-0.339
same,glycan array binding signal (z-score),[7],-0.117
same,glycan array binding signal (z-score),[8],-0.224
same,glycan array binding signal (z-score),[9],-0.591
same,glycan array binding signal (z-score),[10],-0.42
same,glycan array binding signal (z-score),[11],-0.345
same,glycan array binding signal (z-score),[12],-0.403
same,glycan array binding signal (z-score),[13],-0.426
same,glycan array binding signal (z-score),[14],-0.527
same,glycan array binding signal (z-score),[15],-0.487
same,glycan array binding signal (z-score),[16],-0.282
same,glycan array binding signal (z-score),[17],0.024
same,glycan array binding signal (z-score),[18],-0.288
same,glycan array binding signal (z-score),[19],0.339
same,glycan array binding signal (z-score),[20],-0.459
same,glycan array binding signal (z-score),[21],0.234
same,glycan array binding signal (z-score),[22],-0.355
same,glycan array binding signal (z-score),[23],-0.238
same,glycan array binding signal (z-score),[24],-0.013
same,glycan array binding signal (z-score),[25],-0.271
same,glycan array binding signal (z-score),[26],0.537
same,glycan array binding signal (z-score),[27],-0.067
same,glycan array binding signal (z-score),[28],0.171
same,glycan array binding signal (z-score),[29],-0.006
same,glycan array binding signal (z-score),[30],0.2
same,glycan array binding signal (z-score),[31],0.202
same,glycan array binding signal (z-score),[32],0.421
same,glycan array binding signal (z-score),[33],-0.207
